For nine molecules, binding signal results are on record in PMC9911399, “Two distinct binding modes provide the RNA-binding protein RbFox with extraordinary sequence specificity”.

First the molecules themselves.
T1: RBFOX1 RRM (Homo sapiens, UniProt Q9NWB1 109-208)
T1 sequence: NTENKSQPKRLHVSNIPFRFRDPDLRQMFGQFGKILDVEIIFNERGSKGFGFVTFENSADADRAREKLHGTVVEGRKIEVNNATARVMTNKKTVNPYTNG

B1: UCGUCGC (DNA:RNA)
RNA: GGGAGACCGGAAUUCAGAUUGUCCUCGUCGCUUAAAUCCCGUCGUAGCCACCA
DNA 1: CAATCTGAATTCCGGTCTCCC
DNA 2: TGGTGGCTACGACGGGATT
B2: GGCGCCG (DNA:RNA)
RNA: B1 RNA with U25G, C26G, G27C, U28G, G30C, C31G
DNA 1: CAATCTGAATTCCGGTCTCCC
DNA 2: TGGTGGCTACGACGGGATT
B3: CAGGAAG (DNA:RNA)
RNA: B1 RNA with U25C, C26A, U28G, C29A, G30A, C31G
DNA 1: CAATCTGAATTCCGGTCTCCC
DNA 2: TGGTGGCTACGACGGGATT
B4: GCUUCCU (DNA:RNA)
RNA: B1 RNA with U25G, G27U, G30C, C31U
DNA 1: CAATCTGAATTCCGGTCTCCC
DNA 2: TGGTGGCTACGACGGGATT
B5: UGGCCCA (DNA:RNA)
RNA: B1 RNA with C26G, U28C, G30C, C31A
DNA 1: CAATCTGAATTCCGGTCTCCC
DNA 2: TGGTGGCTACGACGGGATT
B6: GGAGGUG (DNA:RNA)
RNA: GGGAGACCGGAAUUCAGAUUGUCCGGAGGUGUUAAAUCCCGUCGUAGCCACCA
DNA 1: CAATCTGAATTCCGGTCTCCC
DNA 2: TGGTGGCTACGACGGGATT
B7: UGUAGAU (DNA:RNA)
RNA: B6 RNA with G25U, A27U, G28A, U30A, G31U
DNA 1: CAATCTGAATTCCGGTCTCCC
DNA 2: TGGTGGCTACGACGGGATT
B8: CUUUCCU (DNA:RNA)
RNA: B1 RNA with U25C, C26U, G27U, G30C, C31U
DNA 1: CAATCTGAATTCCGGTCTCCC
DNA 2: TGGTGGCTACGACGGGATT
B9: AUUCGGG (DNA:RNA)
RNA: B6 RNA with G25A, G26U, A27U, G28C, U30G
DNA 1: CAATCTGAATTCCGGTCTCCC
DNA 2: TGGTGGCTACGACGGGATT

Residue numbers refer to the chain shown, from its start. The list shows a part of the results.

The assay deals with T1, RBFOX1 RRM. Briefly: EMSA; HiTS-Eq, 1 nM pool, 10 min; buffer printed only for the single-RNA assays: 10 mM Tris pH 7.5, 150 mM NaCl, 3.4 mM EDTA, 0.001% NP-40, 30 C. The settings on record: tags: His6 N-terminal (pET28a); label: 5' 32P. In a few lines:
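Purified RbFox RRM, wild type or mutant, was incubated for 10 min in 50 µL with 1 nM of a 5′-radiolabelled RNA pool carrying 7 randomized nucleotides, whose flanks were annealed to DNA oligonucleotides, over a series of increasing protein concentrations. Unbound RNA was resolved on 8% native PAGE, cut out, reverse-transcribed, barcoded by PCR and sequenced on an Illumina HiSeq 2500. Relative association constants were derived from changes in read counts for each RNA species versus the control reaction and normalised to the cognate motif.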
On the technique in general: In EMSA bound probe runs differently from free probe, usually more slowly.
As to B1, the binding signal is 0.0113 KA relative to UGCAUGU.

As to B2, the binding signal is 0.00841 KA relative to UGCAUGU.

In the case of B3, the binding signal is 0.0176 KA relative to UGCAUGU.

As to B4, the binding signal was 0.0109 KA relative to UGCAUGU.

Take B5: the binding signal was 0.0127 KA relative to UGCAUGU.

In the case of B6, the binding signal was 0.0187 KA relative to UGCAUGU.

For the molecule B7, the binding signal is 0.0166 KA relative to UGCAUGU.

As for B8, the binding signal was 0.0054 KA relative to UGCAUGU.

As for B9, the binding signal was 0.00371 KA relative to UGCAUGU.
